{"source": "the supplement of paper PMC8728848", "binders": {"B1": {"name": "PX9961T-pdi-555-33-555 (Parabacteroides distasonis) (protein)", "chain": "FDEETAFQSPTLVYVNTVASLYNNMFKIMGNDRHVYDLNTFSSDEAMLPCRIGDWEDGGLWQNIFLHRWGTMNDLTKNSWDFLYEQIGKCNQSVDKLQAFAEEQPDVEYFKVYLEEVRAVRAFFYYELLDLFARVPLVTSSTTPMSEVKQSERSVVFNFVRSELEEALPYLSDNRSNQKGEYYGRITKPVAYMILAKLALNAEVYADDNWTDGNRPAGKNIKFTVDGKEMNAWEATIAYVDKLEALGYKLQGNFSENFAVANETSVENIFTVPMDPVAYPDAKDYNLVRTRHYDHATAYGQSGWNGSCATVKAMNVFKFGTADEDPRCKLTYFTGEVTGPDGKTIYTEWDGQKVPLKYEPNAPKVYMDASDGLLVKTAGARMAKYEFDQNAQDGGNLHGNDCVIFRFADALLMKAEAKIRLGQNGDDEVNQVRNRVGAKPLQNVTLDTLLDERMLELAWEGVRRQDLIRFGKFTEATVDRYVGVKHFASSLDYQEDKTGYTTVFSIYADILSLNPNLTQNPGY"}}, "test_in_all_cases": "glycan array binding signal (z-score within array); higher = stronger binding", "details_in_all_cases": "glycan notation: IUPAC condensed, linker removed", "key": {"[1]": {"target": "Gal(b1-4)GlcNAc(b1-2)[Gal(b1-4)GlcNAc(b1-4)]Man(a1-3)[GlcNAc(b1-4)][Gal(b1-4)GlcNAc(b1-2)Man(a1-6)]Man(b1-4)GlcNAc(b1-4)GlcNAc", "summary_of_the_method": "(§1)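 The binding signal is a Z-score computed within each array. Data were drawn from 3228 arrays in the Consortium for Functional Glycomics database, restricted to those with a known protein sequence. Scores were averaged over arrays of the same protein sequence at different concentrations or buffers, and over linkers, and negative values can be taken as non-binding.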"}, "[2]": {"target": "Gal(b1-4)GlcNAc(b1-2)[Gal(b1-4)GlcNAc(b1-4)]Man(a1-3)[GlcNAc(b1-4)][Gal(b1-4)GlcNAc(b1-2)[Gal(b1-4)GlcNAc(b1-6)]Man(a1-6)]Man(b1-4)GlcNAc(b1-4)GlcNAc", "summary_of_the_method": "as §1"}, "[3]": {"target": "Gal(b1-4)GlcNAc(b1-2)[Gal(b1-4)GlcNAc(b1-6)]Man(a1-6)[Gal(b1-4)GlcNAc(b1-2)Man(a1-3)]Man(b1-4)GlcNAc(b1-4)GlcNAc", "summary_of_the_method": "as §1"}, "[4]": {"target": "Gal(b1-4)GlcNAc(b1-2)[Gal(b1-4)GlcNAc(b1-6)]Man(a1-6)[Gal(b1-4)GlcNAc(b1-2)Man(a1-3)]Man(b1-4)GlcNAc(b1-4)[Fuc(a1-6)]GlcNAc", "summary_of_the_method": "as §1"}, "[5]": {"target": "Gal(b1-4)GlcNAc(b1-2)[Gal(b1-4)GlcNAc(b1-6)]Man(a1-6)[GlcNAc(b1-4)][Gal(b1-4)GlcNAc(b1-2)Man(a1-3)]Man(b1-4)GlcNAc(b1-4)GlcNAc", "summary_of_the_method": "as §1"}, "[6]": {"target": "Gal(b1-4)GlcNAc(b1-2)[Gal(b1-4)GlcNAc(b1-6)]Man(a1-6)[GlcNAc(b1-4)][Gal(b1-4)GlcNAc(b1-2)[Gal(b1-4)GlcNAc(b1-4)]Man(a1-3)]Man(b1-4)GlcNAc(b1-4)[Fuc(a1-6)]GlcNAc", "summary_of_the_method": "as §1"}, "[7]": {"target": "Gal(b1-4)GlcNAc(b1-3)Gal(b1-3)GalNAc", "summary_of_the_method": "as §1"}, "[8]": {"target": "Gal(b1-4)GlcNAc(b1-3)Gal(b1-3)GlcNAc", "summary_of_the_method": "as §1"}, "[9]": {"target": "Gal(b1-4)GlcNAc(b1-3)Gal(b1-4)Glc", "summary_of_the_method": "as §1"}, "[10]": {"target": "Gal(b1-4)GlcNAc(b1-3)Gal(b1-4)GlcNAc", "summary_of_the_method": "as §1"}, "[11]": {"target": "Gal(b1-4)GlcNAc(b1-3)Gal(b1-4)GlcNAc(b1-2)Man(a1-3)[Gal(b1-4)GlcNAc(b1-3)Gal(b1-4)GlcNAc(b1-2)Man(a1-6)]Man(b1-4)GlcNAc(b1-4)GlcNAc", "summary_of_the_method": "as §1"}, "[12]": {"target": "Gal(b1-4)GlcNAc(b1-3)Gal(b1-4)GlcNAc(b1-2)Man(a1-3)[Gal(b1-4)GlcNAc(b1-3)Gal(b1-4)GlcNAc(b1-2)Man(a1-6)]Man(b1-4)GlcNAc(b1-4)[Fuc(a1-6)]GlcNAc", "summary_of_the_method": "as §1"}, "[13]": {"target": "Gal(b1-4)GlcNAc(b1-3)Gal(b1-4)GlcNAc(b1-2)[Gal(b1-4)GlcNAc(b1-3)Gal(b1-4)GlcNAc(b1-6)]Man(a1-6)[Gal(b1-4)GlcNAc(b1-3)Gal(b1-4)GlcNAc(b1-2)Man(a1-3)]Man(b1-4)GlcNAc(b1-4)GlcNAc", "summary_of_the_method": "as §1"}, "[14]": {"target": "Gal(b1-4)GlcNAc(b1-3)Gal(b1-4)GlcNAc(b1-2)[Gal(b1-4)GlcNAc(b1-3)Gal(b1-4)GlcNAc(b1-6)]Man(a1-6)[Gal(b1-4)GlcNAc(b1-3)Gal(b1-4)GlcNAc(b1-2)Man(a1-3)]Man(b1-4)GlcNAc(b1-4)[Fuc(a1-6)]GlcNAc", "summary_of_the_method": "as §1"}, "[15]": {"target": "Gal(b1-4)GlcNAc(b1-3)Gal(b1-4)GlcNAc(b1-3)Gal(b1-4)GlcNAc", "summary_of_the_method": "as §1"}, "[16]": {"target": "Gal(b1-4)GlcNAc(b1-3)Gal(b1-4)GlcNAc(b1-3)Gal(b1-4)GlcNAc(b1-2)Man(a1-3)[Gal(b1-4)GlcNAc(b1-3)Gal(b1-4)GlcNAc(b1-3)Gal(b1-4)GlcNAc(b1-2)Man(a1-6)]Man(b1-4)GlcNAc(b1-4)GlcNAc", "summary_of_the_method": "as §1"}, "[17]": {"target": "Gal(b1-4)GlcNAc(b1-3)Gal(b1-4)GlcNAc(b1-3)Gal(b1-4)GlcNAc(b1-2)Man(a1-3)[Gal(b1-4)GlcNAc(b1-3)Gal(b1-4)GlcNAc(b1-3)Gal(b1-4)GlcNAc(b1-2)Man(a1-6)]Man(b1-4)GlcNAc(b1-4)[Fuc(a1-6)]GlcNAc", "summary_of_the_method": "as §1"}, "[18]": {"target": "Gal(b1-4)GlcNAc(b1-3)Gal(b1-4)GlcNAc(b1-3)Gal(b1-4)GlcNAc(b1-2)[Gal(b1-4)GlcNAc(b1-3)Gal(b1-4)GlcNAc(b1-3)Gal(b1-4)GlcNAc(b1-6)]Man(a1-6)[Gal(b1-4)GlcNAc(b1-3)Gal(b1-4)GlcNAc(b1-3)Gal(b1-4)GlcNAc(b1-2)Man(a1-3)]Man(b1-4)GlcNAc(b1-4)[Fuc(a1-6)]GlcNAc", "summary_of_the_method": "as §1"}, "[19]": {"target": "Gal(b1-4)GlcNAc(b1-3)Gal(b1-4)GlcNAc(b1-3)Gal(b1-4)GlcNAc(b1-3)Gal(b1-4)GlcNAc(b1-2)Man(a1-3)[Gal(b1-4)GlcNAc(b1-3)Gal(b1-4)GlcNAc(b1-3)Gal(b1-4)GlcNAc(b1-3)Gal(b1-4)GlcNAc(b1-2)Man(a1-6)]Man(b1-4)GlcNAc(b1-4)GlcNAc", "summary_of_the_method": "as §1"}}, "note": "This is one part of the list."}
{"binder": "B1", "values": [{"measurement": "glycan array binding signal (z-score)", "setting": "[1]", "value": 0.304}, {"measurement": "glycan array binding signal (z-score)", "setting": "[2]", "value": 0.013}, {"measurement": "glycan array binding signal (z-score)", "setting": "[3]", "value": -0.161}, {"measurement": "glycan array binding signal (z-score)", "setting": "[4]", "value": 0.789}, {"measurement": "glycan array binding signal (z-score)", "setting": "[5]", "value": -0.325}, {"measurement": "glycan array binding signal (z-score)", "setting": "[6]", "value": -0.293}, {"measurement": "glycan array binding signal (z-score)", "setting": "[7]", "value": -0.561}, {"measurement": "glycan array binding signal (z-score)", "setting": "[8]", "value": 0.293}, {"measurement": "glycan array binding signal (z-score)", "setting": "[9]", "value": -0.468}, {"measurement": "glycan array binding signal (z-score)", "setting": "[10]", "value": -0.308}, {"measurement": "glycan array binding signal (z-score)", "setting": "[11]", "value": 1.46}, {"measurement": "glycan array binding signal (z-score)", "setting": "[12]", "value": 0.672}, {"measurement": "glycan array binding signal (z-score)", "setting": "[13]", "value": 1.53}, {"measurement": "glycan array binding signal (z-score)", "setting": "[14]", "value": 0.117}, {"measurement": "glycan array binding signal (z-score)", "setting": "[15]", "value": -0.104}, {"measurement": "glycan array binding signal (z-score)", "setting": "[16]", "value": 0.899}, {"measurement": "glycan array binding signal (z-score)", "setting": "[17]", "value": -0.094}, {"measurement": "glycan array binding signal (z-score)", "setting": "[18]", "value": -0.136}, {"measurement": "glycan array binding signal (z-score)", "setting": "[19]", "value": -0.456}]}
